{"source": "PubChem BioAssay AID686978", "about": "(National Center for Advancing Translational Sciences (NCATS), 2013)", "note": "“And” between values parts separate entries of the source, which are not always exact repeats. Identical values can stand only once. In all, about 420,000 compounds went through this assay and about 64,000 (15%) were called active. The shares of active, inactive and inconclusive entries below differ from those in the screen. Calls come from the whole dose curve; as a rule, active = well fitted inhibition curve with a large enough effect; inconclusive = small, poorly fitted or top-dose-only effect; inactive = flat fitted curve, though single readings scatter. No potency is given beside an inconclusive call; the fits are too rough. More than one record can exist for a structure, and the calls need not agree. % is set by controls: 0 for no effect and ±100 for the full control effect; potency is the fitted concentration of half-maximal effect; tags give direction and shape of the fitted curve."}
{"assay": "qHTS for Inhibitors of human tyrosyl-DNA phosphodiesterase 1 (TDP1): qHTS in cells in absence of CPT; note: nearly all actives have a fitted effect of over 55% in size", "settings": "DT40 Tdp1-/- hTDP1 cells, no CPT, ATP luminescence, 48 h; activity change, negative = growth inhibition: at 46.2 µM (top of the series) unless noted", "outline": "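A cellular qHTS used chicken DT40 cells lacking endogenous Tdp1 but carrying stably transfected human TDP1. Compounds were applied without camptothecin, and cell growth kinetics were judged by ATP-dependent luminescence after ≥48 hr.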"}
{"smiles": "CCc1ccc(N=C2NC(=O)CS2)cc1", "activity change, negative = growth inhibition": "inactive: -21.8%"}
{"smiles": "COc1ccccc1C1CCN(Cc2ccccc2Cl)CC1", "Potency": "inconclusive [inhibitor, single point]"}
{"smiles": "O=C(COc1ccccc1)Nc1ccccc1N1CCN(c2ccccc2)CC1", "Potency": "inconclusive [inhibitor, partial curve]"}
{"smiles": "C=C1c2cccc(OC)c2O[C@H](C(=O)OCC)[C@@H]1CC(CC)CCCC", "note": "(some centres not stated)", "Potency": "inconclusive [inhibitor, single point]"}
{"smiles": "CCOC(=O)c1cccc(NC(=O)Nc2cc(OC)ccc2OC)c1", "Potency": "inconclusive [inhibitor, single point]"}
{"smiles": "CC(=O)Oc1ccc(N(C(C)=O)S(=O)(=O)c2ccc(C)cc2)c2ccccc12", "Potency": "active: 5.17 µM"}
{"smiles": "c1ccc(CNc2nc(Oc3ccncc3)c3sccc3n2)cc1", "activity change, negative = growth inhibition": "inactive: -13.9%"}
{"smiles": "COc1ccc2cc(CN(Cc3ccco3)C(c3nnnn3C3CCCCC3)C(C)C)c(=O)[nH]c2c1", "note": "(configuration not stated)", "Potency": "inconclusive [inhibitor, single point]"}
{"smiles": "O=C(Nc1ccccc1C(=O)O)c1cccc(NC(=O)c2ccccc2Br)c1", "Potency": "inconclusive [inhibitor, partial curve, poor fit]"}
{"smiles": "Cc1ccc(NC(=O)C2CCN(c3nc(C)cc(C)n3)CC2)cc1", "Potency": "inconclusive [inhibitor, partial curve]"}
{"smiles": "Cc1[nH]c(SCC(=O)Nc2cc(S(C)(=O)=O)ccc2Cl)nc1Cc1ccccc1", "Potency": "inconclusive [inhibitor, single point]"}
{"smiles": "C[C@]12CCC(=O)C=C1[C@H](O)C[C@@H]1[C@@H]2[C@@H](O)C[C@@]2(C)[C@H]1CC[C@]2(O)C(=O)CO", "activity change, negative = growth inhibition": "inactive: -8.6%"}
{"smiles": "CCCCn1c(SCC(=O)Nc2ccc(NC(C)=O)cc2)nc2ccccc2c1=O", "Potency": "inconclusive [inhibitor, partial curve]"}
{"smiles": "CC1CCC(NC(=O)CCc2cn(Cc3ccc(F)cc3)c3ccccc23)CC1", "note": "(configuration not stated)", "Potency": "inconclusive [inhibitor, single point]"}
{"smiles": "CN(CCC#N)C(=O)COC(=O)c1nn(-c2ccccc2)c(=O)c2ccccc12", "activity change, negative = growth inhibition": "inactive: 4.28%"}
{"smiles": "CCOc1ccc(S(=O)(=O)NCCCl)cc1", "Potency": "inconclusive [inhibitor, partial curve]"}
{"smiles": "Cc1cc2c(c(-c3ccc4nc(C)ccc4c3)c1)OC(CNC(=O)Cc1ccn(C)c1)C2", "note": "(configuration not stated)", "Potency": "inconclusive [inhibitor, single point]"}
{"smiles": "CC(Oc1ccc(Cl)cc1)C(=O)Nc1sccc1C(N)=O", "note": "(configuration not stated)", "Potency": "active: 16.4 µM"}
{"smiles": "COc1ccc(OC)c(/C=C/C(=O)OCC(=O)Nc2cccc(Oc3ccccc3)c2)c1", "Potency": "inconclusive [inhibitor, single point]"}
{"smiles": "COc1ccc(C(C)=O)cc1COC(=O)c1cc(C)nc2ccccc12", "Potency": "inconclusive [inhibitor, single point]"}
{"smiles": "Nc1cccc(/C=C2\\C=Cc3ccccc32)c1", "Potency": "inconclusive [inhibitor, partial curve]"}
{"smiles": "COc1ccc(C(C(=O)NC2CCCCC2)N(C(=O)c2snc(C(N)=O)c2N)c2ccccc2OC)cc1", "note": "(configuration not stated)", "Potency": "inconclusive [inhibitor, single point]"}
{"smiles": "COc1ccc(N2CCN(C(=O)COC(=O)c3cc(S(=O)(=O)N(C)C)ccc3N3CCCC3)CC2)cc1", "activity change, negative = growth inhibition": "inactive: -20.7%"}
{"smiles": "COc1ccc(OCC(=O)Nn2c(-c3ccc(C)cc3)nc3ccccc3c2=O)cc1", "Potency": "inconclusive [inhibitor, single point]"}
{"smiles": "CCN(CC)c1ccc(C2C3CCCCC3(O)CCN2CC(=O)Nc2ccccc2)cc1", "note": "(configuration not stated)", "Potency": "inconclusive [inhibitor, single point]"}
{"smiles": "CN(C(=O)c1ccc(NC(=O)Cc2ccc(NC(=O)C3CCCN(C(=O)CCc4ccccc4)C3)cc2)cc1)C1CCCC1", "note": "(configuration not stated)", "Potency": "active: 20.6 µM"}
{"smiles": "COCCn1cc(C(=O)NCCN(C)C)c2c3ccccc3n(C)c2c1=O", "Potency": "inconclusive [inhibitor, single point]"}
{"smiles": "Cc1ccc(N(CC(O)Cn2c3ccccc3c3ccccc32)S(C)(=O)=O)cc1", "note": "(configuration not stated)", "Potency": "inconclusive [inhibitor, single point]"}
{"smiles": "COC(=O)c1cnc(N2CCCN(S(=O)(=O)c3ccc(C(F)(F)F)cc3)CC2)nc1C(F)(F)F", "Potency": "inconclusive [inhibitor, single point]"}
{"smiles": "O=C(C1CCCCC1)N1CCN=C1SCc1cccc([N+](=O)[O-])c1", "Potency": "inconclusive [inhibitor, single point]"}
{"smiles": "O=C(C(=O)N1CCN(c2ccccc2)CC1)c1cccc(Br)c1", "Potency": "inconclusive [inhibitor, single point]"}
{"smiles": "COc1cccc(-c2nc(-c3ccccn3)no2)c1OC", "Potency": "inconclusive [inhibitor, single point]"}
{"smiles": "Cc1ccc(Cn2c(-c3nonc3N)nc3ccccc32)cc1", "activity change, negative = growth inhibition": "inactive: -23.3%"}
{"smiles": "CC(C)OC(=O)CSc1nnc(-c2cnccn2)n1-c1ccc(Cl)cc1", "activity change, negative = growth inhibition": "inactive: 1.82%"}
{"smiles": "CC(=O)NC(c1cccc(F)c1)c1nc(-c2cc3ccccc3o2)cs1", "note": "(configuration not stated)", "Potency": "active: 20.6 µM"}
{"smiles": "Cc1ccc(Cl)c(OCCCN(C)Cc2ccccc2)c1", "Potency": "inconclusive [inhibitor, single point]"}
{"smiles": "O=C(CN(CCc1ccccc1)S(=O)(=O)c1ccc(Br)cc1)N/N=C/c1ccc2c(c1)OCO2", "Potency": "inconclusive [inhibitor, single point]"}
{"smiles": "C=C1CCC[C@]2(C)C[C@H]3OC(=O)C(CN(Cc4ccc(OC)c(OC)c4)CC(C)O)[C@H]3CC12", "note": "(some centres not stated)", "Potency": "active: 18.4 µM"}
{"smiles": "COc1ccccc1N(C)S(=O)(=O)c1ccc(C(=O)N2CCC2)cc1", "Potency": "inconclusive [inhibitor, single point]"}
{"smiles": "CN1CCC(OC(=O)c2ccc(Br)cc2)CC1", "activity change, negative = growth inhibition": "inactive: -17.6%"}
{"smiles": "O=C(NNC(=S)Nc1ccc(Br)cc1)c1ccc(N2CCOCC2)c([N+](=O)[O-])c1", "Potency": "inconclusive [inhibitor, single point]"}
{"smiles": "CC1(C(=O)NCC2CC2)CCN1C(=O)C1(c2ccc(Cl)cc2)CC1", "note": "(configuration not stated)", "activity change, negative = growth inhibition": "inactive: -21.7%"}
{"smiles": "COc1ccccc1NC(=O)c1c(C)oc2c1CCCC2", "Potency": "inconclusive [inhibitor, single point]"}
{"smiles": "CCOC(=O)[C@H](CCc1ccccc1)N[C@@H](C)C(=O)N1Cc2ccccc2C[C@H]1C(=O)O", "Potency": "inactive and active: 259 nM"}
{"smiles": "CC(=O)Nc1ccc(-c2csc(NNC(=O)c3ccccc3)n2)cc1", "Potency": "active: 1.3 µM"}
{"smiles": "O=C1CC(c2ccccc2)=Nc2ccc(Br)cc2N1", "Potency": "inconclusive [inhibitor, single point]"}
{"smiles": "CCOC(=O)N/N=C/c1cn(CCCOc2ccccc2)c2ccccc12", "Potency": "inconclusive [inhibitor, single point]"}
{"smiles": "COc1ccc(OCC(=O)N2c3ccccc3CC2C)c([N+](=O)[O-])c1", "note": "(configuration not stated)", "Potency": "inconclusive [inhibitor, single point]"}
{"smiles": "c1ccc(CSC2=NCCCN2)cc1", "activity change, negative = growth inhibition": "inactive: -0.406%"}
{"smiles": "CC(C)c1[nH]nc2c1C(C(C)C)C(C#N)=C(N)O2", "note": "(configuration not stated)", "Potency": "inconclusive [inhibitor, single point]"}
{"smiles": "CCOC(=O)CSc1ncnc2c1c(-c1ccccc1)cn2-c1ccc(OC)cc1", "Potency": "inactive"}
{"smiles": "Cc1cccc(C)c1NC(=O)CN(C)CC(=O)Nc1sc2c(c1C(N)=O)CCC2", "Potency": "inconclusive [inhibitor, partial curve]"}
{"smiles": "CCN(CC)C(=O)C1CCCc2c1[nH]c1ccc(Cl)cc21", "note": "(configuration not stated)", "Potency": "inconclusive [inhibitor, single point]"}
{"smiles": "COc1cc(O)c(C(CC(=O)N2CCCC(C)C2)c2ccc(N(C)C)cc2)c(OC)c1", "note": "(configuration not stated)", "Potency": "inconclusive [inhibitor, single point]"}
{"smiles": "COc1ccc(N2CC(NC(=O)c3ccc(S(=O)(=O)N4CCOCC4)cc3)CC2=O)cc1", "note": "(configuration not stated)", "Potency": "inconclusive [inhibitor, single point]"}
{"smiles": "C/C(=N/NC(=O)c1nnn(-c2nonc2N)c1COc1ccccc1)c1ccc(O)cc1", "activity change, negative = growth inhibition": "inactive: -3.22%"}
{"smiles": "N/C(=N\\OC(=O)CSc1ccccc1)c1ccncc1", "activity change, negative = growth inhibition": "inactive: -1.87%"}
{"smiles": "COc1cc2c(cc1OC)C(COc1ccc(C(C)C)cc1)N(C(=O)COc1ccccc1)CC2", "note": "(configuration not stated)", "Potency": "inconclusive [inhibitor, partial curve, poor fit]"}
{"smiles": "Cc1ccnc(NC(=O)c2oc3ccccc3c2C)c1", "Potency": "inconclusive [inhibitor, single point]"}
{"smiles": "CCOP(=O)(OCC)C(Nc1ccccc1)c1cc(OC)ccc1OC", "note": "(configuration not stated)", "activity change, negative = growth inhibition": "inconclusive: -31.8% [inhibitor]"}
{"smiles": "COc1ccccc1C1C(C#N)=C(N)Oc2c1c(-c1ccccc1)nn2-c1ccccc1", "note": "(configuration not stated)", "Potency": "inconclusive [inhibitor, partial curve]"}
{"smiles": "Cc1ccc(S(=O)(=O)N2CCN(C(=O)COC(=O)c3cc([N+](=O)[O-])ccc3NCCO)CC2)c(C)c1", "Potency": "inconclusive [inhibitor, single point]"}
{"smiles": "COCCn1c(=O)c(CCc2ccccc2)nc2cnc(Oc3ccccc3)nc21", "activity change, negative = growth inhibition": "inactive: -18.9%"}
{"smiles": "O=C(Nc1ccc(F)cc1Cl)c1ccc2c(=O)n3c(nc2c1)CCC3", "Potency": "inconclusive [inhibitor, single point]"}
{"smiles": "Cc1ccc(S(=O)(=O)N2CCN(C(=O)c3ccc4ccccc4n3)CC2)c(C)c1", "activity change, negative = growth inhibition": "inconclusive: -30.1% [inhibitor]"}
{"smiles": "CC1(C)C[C@@H]2C[C@@](C)(CN2C(=O)c2cc(COc3cccc(C(F)(F)F)c3)on2)C1", "Potency": "active: 18.4 µM"}
{"smiles": "COc1ccc(/C=N/NC(=S)Nc2cc(S(=O)(=O)N3CCOCC3)ccc2N2CCOCC2)cc1O", "Potency": "inconclusive [inhibitor, single point]"}
